# From PMC12136788
# This is one part of the list.
# T1: UNK ZnF1-3 (human, UniProt Q9C0B0 31-174)
# T1 sequence: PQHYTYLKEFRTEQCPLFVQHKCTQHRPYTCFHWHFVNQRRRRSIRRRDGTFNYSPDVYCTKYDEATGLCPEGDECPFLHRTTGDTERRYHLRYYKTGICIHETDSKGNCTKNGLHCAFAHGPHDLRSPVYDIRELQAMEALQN
# B1: chr15:83907240:83907241:-_ENSMUSG00000018865_ENSMUST00000082365|mus_mus|FALSE|FALSE (ssRNA)
# RNA: GGGAGUUCUACAGUCCGACGAUCGCUGUGAAAGAUACUAAUUCUUGGUGCAGUCUGGCAUCUGUGGGGCCUCUUCCACACCUACCAGUGCCUUCAGAUGCCACCCGCAGCCUCGGGCCAGCUUCCCUGCCGAAACAUUCCUUGCAACAGAGGAUUGAGCAUCA
# B2: chr1:220276048:220276049:+_ENSG00000067704_ENST00000302637|hu_hu|hu_hu_hu_mus_True|28_28 (ssRNA)
# RNA: GGGAGUUCUACAGUCCGACGAUCGCAAAUUGCCUGGUUGGCGGGAAUUGUCCAAGGCUGGGUGGUCCAAACUAAAACGCUAACAGGGGAUGAGGCAUCUGUAAGAGAUGCCAAUUUCGGAGGAGGUCUCAGGAGGGGGAAUCUCAACAGAGGAUUGAGCAUCA
# B3: chr4:83987663:83987664:+_ENSG00000138663_ENST00000264389|hu_mus|FALSE|FALSE (ssRNA)
# RNA: GGGAGUUCUACAGUCCGACGAUCGCGUCCUUCCGUUAUCAUCUGAGAUGCUAUCUUUUCUGCCUUAGCUGCAGGGAUCUCUAAAAGAGCUCCAAGUUCUUCAAAGGUGAUAUUGUUAUAUAAUUUGCUUGCUGACAACAAAUUCAACAGAGGAUUGAGCAUCA
# B4: 87593645_87610160_308_CDS_ENSG00000163629_ENST00000511467|human|control|control (ssRNA)
# RNA: GGGAGUUCUACAGUCCGACGAUCAGGUUGGCUCUGAGGCACUUCAUAAUCAGCCCCCCAAUACAGUGUCAUUCCAAGAGAAUAAAUGUGGAUCUUUUCAACAUCUGAGAGAGAAGUUAGUGACUGAUUUUGAAGAACCUCUGGCAACAGAGGAUUGAGCAUCA
# B5: 93070052_93071552_624_CDS_ENSMUSG00000020964_ENSMUST00000021347|mouse|control|control (ssRNA)
# RNA: GGGAGUUCUACAGUCCGACGAUCCCCGGCCUGAUAGAUCAUCUCUGCUUCCUGCAUCUGUCGUCUUUUGGCAGCAUCUUCUUCAGUUUCGCAGAAGCCCCACUUCUCAUCUGUCUUGUAGUCAUAGGUUGUGGCACACCACAGCAACAGAGGAUUGAGCAUCA
# B6: chr4:48249827:48249828:-_ENSMUSG00000028343_ENSMUST00000030028|mus_hu|FALSE|FALSE (ssRNA)
# RNA: GGGAGUUCUACAGUCCGACGAUCCUCAAAAAUUGGAUGCAACAUCUGACUGAAACGACACCAGUCAGCAUAAAAAUUUACUAAAGCAACAUCAGCAUUGUUUAAAAUUUCAUCUAUAUUCUCUGUAUCAAGACUUGUUAUUUCCAACAGAGGAUUGAGCAUCA
# B7: chr11:106117246:106117247:-_ENSMUSG00000020706_ENSMUST00000021048|mus_hu|FALSE|FALSE (ssRNA)
# RNA: GGGAGUUCUACAGUCCGACGAUCUUUGUAAGUUGAAAGUUGAGACUAGGAAGGCAUAUCACAAGAACUAUAAACAGAGUUUCAAUGAGGCAACACUGAGGAGGAGUUCUACUCCUUCCUCAUCCCCUUCCAAAGCCCCUGAACCAACAGAGGAUUGAGCAUCA
# B8: 113440550_113440670_831_3pUTR_ENSG00000121579_ENST00000240922|human|control|control (ssRNA)
# RNA: GGGAGUUCUACAGUCCGACGAUCGGGCCUCUCUUUUAUUUGGCGACAAGCAAGUGCAAGAAAGUUCAUUUGUAAUUUGUUCAGUUGUCUGUCUUUUGCACAUCUGCAUUCUGACCAGAAGGAACUUUGAGGUUUUUCUGCAGCCAACAGAGGAUUGAGCAUCA
# B9: chr11:69650846:69650847:-_ENSMUSG00000051790_ENSMUST00000108634|mus_hu|FALSE|FALSE (ssRNA)
# RNA: GGGAGUUCUACAGUCCGACGAUCGAACCCCGCAGUAGGGACGAUAGAGAAAGGAGGGGGCAACGGGACAGGACUAGAUUGAGGAUCCGCUGGUUCCGUGGGCCGGCUUCGAGGGACCAGAAGGCGGUCCAGGCGGAGGAUCCUCAACAGAGGAUUGAGCAUCA
# B10: chr5:80785125:80785126:-_ENSG00000145687_ENST00000509013|hu_mus|FALSE|FALSE (ssRNA)
# RNA: GGGAGUUCUACAGUCCGACGAUCGGCCGCCAGGGUACCGAGGCGACAUAAAAGGCUGAAAGAACCCUGGUGGCACGGGACCUACUGGCAUGCCAUCUCCUGGGGGCAUGUUUCCUAGCACGGGGCUGGGAGCUGCUGCAGCACCAACAGAGGAUUGAGCAUCA
# B11: chr4:76721835:76721836:+_ENSG00000138768_ENST00000264904|hu_mus|hu_hu_hu_mus_True|18_108 (ssRNA)
# RNA: GGGAGUUCUACAGUCCGACGAUCGUUGGCUGGGGUUUUCUGAGACGCUCUGGAAUAUAACUCAUGUUUGCUAAUAAAUCCUAGUUUCUCUAUGAAAUUCUCUUUGCCAAUCCUCUUUCAAUCAGUUUGCUUUAGUUUCUCUUUCAACAGAGGAUUGAGCAUCA
# B12: chr2:160604868:160604869:+_ENSG00000136536_ENST00000409591|perfect_dup|FALSE|FALSE (ssRNA)
# RNA: GGGAGUUCUACAGUCCGACGAUCUGAAUCUGACUCAGAGCUAUGAUUGUGGCUAAGAGAUGACAAACCCCAUCUUCGCCUAAGAAAUCGAAAUCCCUGAGAAGCUUCAGAUGCCCUAUUAUCGGGAACUUCAGAAGCUGAUGGCAACAGAGGAUUGAGCAUCA
# B13: chr7:156476592:156476593:-_ENSG00000105983_ENST00000359422|hu_mus|FALSE|FALSE (ssRNA)
# RNA: GGGAGUUCUACAGUCCGACGAUCCUAUAGACACACAGCUUUUCCUCAGUCUCAAGACUCAGGGUUUAACCAAAAGCUGUCAUAUCCGGCCAAUCAGAAAACUCCCAGGAGACACAGAUGACUAGUGCUAAGUUGUAAGUGCUUCAACAGAGGAUUGAGCAUCA
# B14: chr3:139236485:139236486:-_ENSG00000114115_ENST00000232219|hu_hu|FALSE|FALSE (ssRNA)
# RNA: GGGAGUUCUACAGUCCGACGAUCUCCUGCUGAUUCCUUGGGACAAGGUUGUCUGCCUGGGCCUCACUGCACCUUCUUGAAUACUUGCUUGCAGACCACACCUUCCACUCUCAUCUCCAGGUGCAGCUCAUCACCCUCGAUCCACAACAGAGGAUUGAGCAUCA
# B15: chr7:151622947:151622948:-_ENSMUSG00000031078_ENSMUST00000033407|mus_hu|FALSE|FALSE (ssRNA)
# RNA: GGGAGUUCUACAGUCCGACGAUCGAAGAGCCCGUACCGGCCCUUGCACACCCCGCGCCACCAGCCGUCGUCAAUCAUCUCGAUGUUGGUGAUGAUGUCAUCAGGGUCAAAUGAGAUCUCAUCAUCGCCCGCAGCCUGGUAGUCCAACAGAGGAUUGAGCAUCA
# B16: chr3:47957716:47957717:-_ENSG00000047849_ENST00000395734|hu_hu|motif|central (ssRNA)
# RNA: GGGAGUUCUACAGUCCGACGAUCAUCCUCAGUCAGGGCCACCUCCAUUUCUGGAGGCAGACAUACGUUCUUGAUGAGAACGGCUUCUGUUUCUGGAGGUGGAGUCACAUCCUUGCCCAGAGCCAUUUCUGUUUCUGAUAGUGGCAACAGAGGAUUGAGCAUCA
# B17: chr11:69466514:69466515:+_ENSG00000110092_ENST00000227507|hu_hu|motif|central (ssRNA)
# RNA: GGGAGUUCUACAGUCCGACGAUCAUAUGUUUUUCUACCUAAAACCCUCUUCUACUUUAAAAAUGGUUUGCUGAAUUUUUCGGUGUUUUUAAAAUGUUUUUAUGCUUUUUUUUAAACACGUAAAGGAUGGAACCUAAUCCUCUCCAACAGAGGAUUGAGCAUCA
# B18: chr2:179763710:179763711:+_ENSMUSG00000039108_ENSMUST00000058764|mus_hu|motif|central (ssRNA)
# RNA: GGGAGUUCUACAGUCCGACGAUCCUGCUGUGGCUCUGAGGACAAGUCAAGCUCUGAAACGGGCUGUGGAGAUGGAGAAGAGCGGGGGCUGGAAGCAGCGGCUGAGGCUGGAGGGCUUACCAACUUCUCUAGACCCAGGGAGGCCAACAGAGGAUUGAGCAUCA
# B19: chr17:16285543:16285544:+_ENSG00000170315_ENST00000577640|hu_hu|FALSE|FALSE (ssRNA)
# RNA: GGGAGUUCUACAGUCCGACGAUCCAGCUGCUUGCCUGCAAAGAUGAGCCUCUGCUGGUCGGGAGGGAUGCCUUCUUUAUCCUGGAUCUUGGCCUUCACAUUUUCGAUGGUGUCACUGGGCUCCACUUCCAGGGUGAUGGUCUUCAACAGAGGAUUGAGCAUCA
# B20: chr7:75932113:75932114:+_ENSG00000106211_ENST00000248553|hu_hu|hu_hu_hu_mus_False|28_58 (ssRNA)
# RNA: GGGAGUUCUACAGUCCGACGAUCCUGCGACCACUCAUCGGGCAACCGGGGCACCCCGAAAGCUUGAUCGAAGAGGCGGCUAUGCGGAGGGUACCAGUCCCGGAAUGCCCAGCUGGGCGGGCUCCGCAGCAGCGAGAAGGGCACCAACAGAGGAUUGAGCAUCA
# B21: chr15:63448706:63448707:-_ENSG00000185088_ENST00000411926|hu_hu|motif|central (ssRNA)
# RNA: GGGAGUUCUACAGUCCGACGAUCUGAUCUUGUAGCAACCUGGACAUUUUACAUCCAUAAAGUAAGAAUUUGGACUUUGUACGGGGCGUUUCUUUUUAUGUUUUUUCUUUUCCUCUUCCAAGGACGGAUGUAGUAAAUCUCUAGCAACAGAGGAUUGAGCAUCA
# B22: chr17:88387627:88387628:+_ENSMUSG00000005370_ENSMUST00000005503|mus_mus|motif|central (ssRNA)
# RNA: GGGAGUUCUACAGUCCGACGAUCAAAAUCGUCUCCAAAAAAAGUCUUUGUAAUGCAGGGAUGUCGUGACCCUUUAAACUCGGAGAAGGGAUGUGUGUCUUCUCCUGGUAACACAAUUUCUGGGCGACACAUAGGACCAUCUCCCAACAGAGGAUUGAGCAUCA
# Molecular target: T1, UNK ZnF1-3
# Assay: nsRBNS (natural sequence RNA bind-n-seq); RBNS binding buffer (assumed for nsRBNS): 25 mM Tris pH 7.5, 150 mM KCl, 3 mM MgCl2, 0.01% Triton X-100, 500 ug/ml BSA, 20 U/ml SUPERase-In, 4 C; UNK is unkempt and MSI1 is Musashi-1; names of the RNAs are library labels; protein concentration not given here; high values mean tight binding
row,Binder,binding signal [enrichment R]
1,B1,0.819
2,B2,2.61
3,B3,0.731
4,B4,0.735
5,B5,0.647
6,B6,2.05
7,B7,1.37
8,B8,0.948
9,B9,1.03
10,B10,0.743
11,B11,0.488
12,B12,0.706
13,B13,0.94
14,B14,0.614
15,B15,0.854
16,B16,0.629
17,B17,0.686
18,B18,2.04
19,B19,0.691
20,B20,0.553
21,B21,0.947
22,B22,0.635
